Data as given in publication PMC7819943, “Rice protein-binding microarrays: a tool to detect cis-acting elements near promoter regions in rice”.
The other results are listed elsewhere or left out.

The sequences below were run against T1, OsWOX13 (Oryza sativa, UniProt Q5QMM3 1-267) (assay: protein-binding microarray (RPBM); PBS, 2% BSA, 51.3 ng/ul salmon testes DNA, 50 uM zinc acetate, 200 nM TF, 25 C, 1 h; high values mean tight binding). Settings: protein: recombinant; tags: N-terminal polyhistidine and DsRed monomer fusion (pET32a); label: CyDye5-dUTP incorporated in the synthesized complementary strand; 3' TTTTT single-stranded linker to array surface; dsDNA, one strand shown.
T1 sequence: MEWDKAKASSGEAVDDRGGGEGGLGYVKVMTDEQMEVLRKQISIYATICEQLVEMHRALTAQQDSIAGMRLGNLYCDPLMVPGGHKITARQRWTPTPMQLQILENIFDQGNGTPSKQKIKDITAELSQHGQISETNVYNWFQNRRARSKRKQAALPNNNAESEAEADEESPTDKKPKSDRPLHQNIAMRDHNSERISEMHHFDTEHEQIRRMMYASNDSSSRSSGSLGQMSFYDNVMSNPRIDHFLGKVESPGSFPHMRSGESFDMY
Method in brief: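 Polyhistidine-tagged DsRed fusions of transcription factors, joined at the N-terminus, were expressed in E. coli BL21-CodonPlus and isolated on Ni–NTA. They were incubated at 200 nM for 1 h at 25 °C on a custom Agilent array, double-stranded and BSA-blocked, in PBS with 2% BSA, salmon testes DNA and 50 µM zinc acetate. The binding signal is per-feature fluorescence intensity (arbitrary units) read on an Axon 4000B scanner after washing.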
“TACAGAGATAATTAGCAACAATAATGGTTCCATGGTGTAGCGGAGTCACCTAGTGCAG” was tested, and the binding signal was 19000 fluorescence intensity (a.u.). “GTGATGGAGGGGTGATGTGATGGGGCGTAGAATGATATACCGGAGTCACCTAGTGCAG” was tested, and the binding signal was 8280 fluorescence intensity (a.u.). For “AGATTAATTAGGATCAAAAGATTCGTCTCGCGGTTTTCAGCGGAGTCACCTAGTGCAG”, the binding signal was 18800 fluorescence intensity (a.u.). For “TAAAAGATAATTATTGTAACAAGATCTTAAATATCTTAGACGGAGTCACCTAGTGCAG”, the binding signal was 6770 fluorescence intensity (a.u.). In the case of “AGTAATTAGTATGACCACCCTAATATACGGTAGTATGGTACGGAGTCACCTAGTGCAG”, the binding signal was 27200 fluorescence intensity (a.u.). With “TGGATTGGATTGGATTGGGTTTCTGTGTGTGGAGGTGTGTCGGAGTCACCTAGTGCAG” the binding signal was 45800 fluorescence intensity (a.u.). With “ACCCTCCAAATAAATTGGAGGAAATTAAATTAGGAGGCTTCGGAGTCACCTAGTGCAG” the binding signal was 14900 fluorescence intensity (a.u.). With “TTCATTCATGTTAATAGATTTAAATAATAAGGCTCAGATCCGGAGTCACCTAGTGCAG” the binding signal was 3260 fluorescence intensity (a.u.). For “TCTATAAATTGAACATGTTTCAAACCAGGCTTGCAAGTTGCGGAGTCACCTAGTGCAG”, the binding signal was 15500 fluorescence intensity (a.u.). With “CGAGCTTAATTTGCTTAAACTAGTGCTGGCTCCCTCGGATCGGAGTCACCTAGTGCAG” the binding signal was 19100 fluorescence intensity (a.u.). “AAACTCCTAATTAAGTTATCCTGACTCCATTGGAAAGAGTCGGAGTCACCTAGTGCAG” was tested, and the binding signal was 5630 fluorescence intensity (a.u.). For “TACTTGCTCGATTAGTTTATTAATTAATGCCCTAATCATCCGGAGTCACCTAGTGCAG”, the binding signal was 10600 fluorescence intensity (a.u.). For “CCAATTTTCAATCAGTACTATCATGGAGACGACTTCCATACGGAGTCACCTAGTGCAG”, the binding signal was 15300 fluorescence intensity (a.u.). “GAAATAATTATACTAAATCCAGATGTTGCATGCATGATACCGGAGTCACCTAGTGCAG” was tested, and the binding signal was 11400 fluorescence intensity (a.u.). In the case of “AGTTAACGGCGTTAACTGTATACCCCGCGAGACAATGACACGGAGTCACCTAGTGCAG”, the binding signal was 4080 fluorescence intensity (a.u.). With “AGCCCGTTCAATTAAGCTTGGCCACACATCCTGGCCCAACCGGAGTCACCTAGTGCAG” the binding signal was 3210 fluorescence intensity (a.u.). For “ACCTTATGAACTTATTAAGATTGATTTGTAGGTGGCGGAGCGGAGTCACCTAGTGCAG”, the binding signal was 16900 fluorescence intensity (a.u.). “GTGAAAATTATTATCATTCCATTTATTTCCATTATGTAATCGGAGTCACCTAGTGCAG” was tested, and the binding signal was 13300 fluorescence intensity (a.u.). “TACCCATCTGGCTTACACTAATTGAACAGACAAGTGGCCGCGGAGTCACCTAGTGCAG” was tested, and the binding signal was 9560 fluorescence intensity (a.u.). In the case of “TTCTAATTCGGACTGACAGAGTACTATAATATTCATTCAACGGAGTCACCTAGTGCAG”, the binding signal was 4760 fluorescence intensity (a.u.). “CATAGAGAACAAATTAATTAATCGTACCATTATTCAAAATCGGAGTCACCTAGTGCAG” was tested, and the binding signal was 4160 fluorescence intensity (a.u.). For “GCTAACTTTGAATCAGAGGTTAATTACCTGAAGAAGTCCTCGGAGTCACCTAGTGCAG”, the binding signal was 15400 fluorescence intensity (a.u.). For “TTGATTTAATTACCTTGACCACTCAGTATATGATTAGTAACGGAGTCACCTAGTGCAG”, the binding signal was 27300 fluorescence intensity (a.u.). “TTTAATTTGAAGAGAAATGGGTGGAAATTTGTCAGCCATGCGGAGTCACCTAGTGCAG” was tested, and the binding signal was 26800 fluorescence intensity (a.u.). In the case of “TGAAACATAACTAAATTAGTCATGGAAGAAACTGCTGTTACGGAGTCACCTAGTGCAG”, the binding signal was 9330 fluorescence intensity (a.u.). In the case of “GGGATGGATTAATACATTTCGGATGGTTAATCAAACGATGCGGAGTCACCTAGTGCAG”, the binding signal was 4120 fluorescence intensity (a.u.). “GAATCCGCTATATACCCTCTCTTCCACCCGCGCCACCCACCGGAGTCACCTAGTGCAG” was tested, and the binding signal was 3150 fluorescence intensity (a.u.). With “GTGATGTGATGTGATGGAAAGTTTAGAGTTTTAGATCACCCGGAGTCACCTAGTGCAG” the binding signal was 17400 fluorescence intensity (a.u.). With “GAATAACAGACATATCATATTTGTTGCCTCCTGGTGGCTACGGAGTCACCTAGTGCAG” the binding signal was 7840 fluorescence intensity (a.u.). With “CCAATCAATCCTGCTACTGCTCATAAAATGGTTTCCCATTCGGAGTCACCTAGTGCAG” the binding signal was 9000 fluorescence intensity (a.u.). For “TATGATTTTGAAAGAAACTGCAGCTAACATAAACTCTCCTCGGAGTCACCTAGTGCAG”, the binding signal was 17400 fluorescence intensity (a.u.). “TAATTACAATTAGCGGATGACATTGTAATCGTTCGATATGCGGAGTCACCTAGTGCAG” was tested, and the binding signal was 7120 fluorescence intensity (a.u.). In the case of “GTCTGTGATAATTTTGTTCTCTTCTTGTTGGGGTCTTGGGCGGAGTCACCTAGTGCAG”, the binding signal was 3920 fluorescence intensity (a.u.). With “TCTAAATTGTTCATTGATTCTGTTATAGATTGCTTAAGCCCGGAGTCACCTAGTGCAG” the binding signal was 38200 fluorescence intensity (a.u.). With “TTTAAATTGTAATCCTACTTGAACTCTTCTTTATTTTCTTCGGAGTCACCTAGTGCAG” the binding signal was 6760 fluorescence intensity (a.u.). For “CGCTAATCATAAACACTGCAAACAAATAAAGCACGCTGGACGGAGTCACCTAGTGCAG”, the binding signal was 10800 fluorescence intensity (a.u.). In the case of “GGAATTTGCAATAATGGGATGGGCGAACGACGGGAATTGACGGAGTCACCTAGTGCAG”, the binding signal was 5620 fluorescence intensity (a.u.). In the case of “AACCAATAACTGAAGATCAACATCAGTCACAAGTATGGAACGGAGTCACCTAGTGCAG”, the binding signal was 8770 fluorescence intensity (a.u.). In the case of “ACACTCTTCAATCAAGGAGCAAATACAGGCTGTGGACTTGCGGAGTCACCTAGTGCAG”, the binding signal was 19200 fluorescence intensity (a.u.). In the case of “AAATGACCAAAATAAAATTGATAGATCTCAATGAGTTCTACGGAGTCACCTAGTGCAG”, the binding signal was 7920 fluorescence intensity (a.u.). In the case of “TATCTATTTAGATTTATTAACATTAATATGAATATAGGAACGGAGTCACCTAGTGCAG”, the binding signal was 5320 fluorescence intensity (a.u.). With “ATCCGTAATTAAATTACCAAACTGCCCCTCCTAGCCAAAGCGGAGTCACCTAGTGCAG” the binding signal was 25900 fluorescence intensity (a.u.). With “TACTAATTGTATTATGATAAAATCCATATCTATGCGGTTACGGAGTCACCTAGTGCAG” the binding signal was 19300 fluorescence intensity (a.u.). With “TTGATTGCAGATCAAATGCATGCAATAAGAATGGAGATGGCGGAGTCACCTAGTGCAG” the binding signal was 19600 fluorescence intensity (a.u.). For “TTTTCCTTAACCAATCATCATTCCCTCATCCCATTAAATTCGGAGTCACCTAGTGCAG”, the binding signal was 5060 fluorescence intensity (a.u.). In the case of “TATATTTTAATTTATATGGATGATCCTTATAGCTATGGGTCGGAGTCACCTAGTGCAG”, the binding signal was 8380 fluorescence intensity (a.u.). “TATATATATATATATATATATAAAAGTTACTTTTAGATTTCGGAGTCACCTAGTGCAG” was tested, and the binding signal was 4220 fluorescence intensity (a.u.). “TGATAATTAATCTATAGTTTTCTAATAGTTTTGTTATAAACGGAGTCACCTAGTGCAG” was tested, and the binding signal was 15900 fluorescence intensity (a.u.). For “GTTGATAATTGGTTCGGATCCCCGCTGCTTCGTCGCAAATCGGAGTCACCTAGTGCAG”, the binding signal was 36600 fluorescence intensity (a.u.). In the case of “CATCACTAATCTACAATTAAGGGCTTGTTCAGATTGATGACGGAGTCACCTAGTGCAG”, the binding signal was 14100 fluorescence intensity (a.u.). “GGCATTGACTGACTCCACTAGTCCTGTCAAGAGCGTGCATCGGAGTCACCTAGTGCAG” was tested, and the binding signal was 10600 fluorescence intensity (a.u.). In the case of “CTTAATTAGCTAGGGTTGCATTGCTGCACTGCACTGGTGTCGGAGTCACCTAGTGCAG”, the binding signal was 29900 fluorescence intensity (a.u.). With “ACTGTGCATGATTTGTCCCTAGAACTTTAGTTTAAGTATGCGGAGTCACCTAGTGCAG” the binding signal was 5640 fluorescence intensity (a.u.). For “ATTCAAATTCCTAAATTTAACAGTAAAGTTTCCCATACACCGGAGTCACCTAGTGCAG”, the binding signal was 4760 fluorescence intensity (a.u.).
